The supplement of paper PMC3334620
Over roughly 33,000 sequences, “E-score (-0.5 to 0.5)” has its median near -0.043; the highest 2% begin near 0.37. Some of the results follow.

Target: T1, Upc2 (UniProt Q12151)
T1 sequence: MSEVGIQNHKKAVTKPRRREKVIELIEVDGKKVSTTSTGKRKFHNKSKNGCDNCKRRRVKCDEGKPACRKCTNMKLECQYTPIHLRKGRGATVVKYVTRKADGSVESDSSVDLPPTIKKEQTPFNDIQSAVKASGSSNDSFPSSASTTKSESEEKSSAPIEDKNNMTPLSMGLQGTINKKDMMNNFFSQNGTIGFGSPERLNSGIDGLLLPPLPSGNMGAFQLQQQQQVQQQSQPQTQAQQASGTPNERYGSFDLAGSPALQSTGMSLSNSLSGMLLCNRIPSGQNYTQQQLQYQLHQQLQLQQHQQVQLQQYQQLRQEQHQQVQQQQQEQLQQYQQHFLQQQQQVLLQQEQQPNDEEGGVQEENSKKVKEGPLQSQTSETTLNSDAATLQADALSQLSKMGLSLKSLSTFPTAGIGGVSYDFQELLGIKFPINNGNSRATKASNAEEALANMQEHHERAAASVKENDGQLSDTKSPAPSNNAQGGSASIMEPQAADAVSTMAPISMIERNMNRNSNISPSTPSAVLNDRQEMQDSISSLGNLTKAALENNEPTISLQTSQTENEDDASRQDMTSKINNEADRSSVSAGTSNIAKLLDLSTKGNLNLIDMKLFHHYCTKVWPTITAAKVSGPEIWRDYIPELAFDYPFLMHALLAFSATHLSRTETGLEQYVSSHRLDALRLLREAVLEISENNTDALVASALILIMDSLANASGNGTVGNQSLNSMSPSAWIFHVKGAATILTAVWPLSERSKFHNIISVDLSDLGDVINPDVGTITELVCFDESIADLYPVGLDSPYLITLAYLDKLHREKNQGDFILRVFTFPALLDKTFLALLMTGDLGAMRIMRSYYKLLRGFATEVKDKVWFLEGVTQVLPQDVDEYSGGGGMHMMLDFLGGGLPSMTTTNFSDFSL
Assay: PBM E-score (8-mer binding enrichment) (E-score (-0.5 to 0.5)); higher = stronger / more preferred TF binding; most listed sequences are background and not binding sites
Settings: protein concentration: 200 nM; construct: GST-full length
Experimental: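 Universal 'all 10-mer' protein binding microarrays (Agilent AMADID 015681) probed with GST-tagged S. cerevisiae TFs (full-length or DBD) made by in vitro transcription/translation (PURExpress), about 100-200 nM. Bound TF was detected with fluorescent anti-GST. Each ungapped 8-mer (which stands for itself and its reverse complement) is scored by the PBM enrichment score (E-score), a modified Wilcoxon-Mann-Whitney statistic from -0.5 to +0.5, computed with the Universal PBM Analysis Suite. Scale: above 0.35 generally sequence-specific binding.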

Sequence	PBM E-score
CACAGCGC	-0.304
GTCCTAAC	-0.0822
CAATCGTA	0.4
AAGGGGGG	-0.246
ACTAGGGC	-0.293
CGCCGCCG	-0.0601
ATCCAAAG	-0.0459
CAGTACTG	0.134
ATGGATGC	-0.061
ATTAACCG	0.229
GACTCTAC	0.0781
TACTGGAA	-0.0883
CGGTCTAG	0.0866
GGAGGGCA	-0.22
AAAATACG	0.346
CAATTTCA	-0.1
ACTCGTCA	-0.0246
CTTAGGGA	-0.23
AAGTTAGG	-0.142
AGTGTCAG	-0.0575
ACTCCATC	-0.211
GGACCCTA	-0.202
GCTGCGGA	-0.164
GTGTATCA	-0.0133
CAGCACAC	-0.158

Sequence	PBM E-score
ACAACAAG	0.049
ACGTGCAT	0.0526
CTAGCACA	-0.285
ACTTCCCC	-0.303
TTCGACAA	0.0423
CCCCAACG	-0.107
CGAGTAAC	0.277
GATGTTGC	-0.00714
ACAGACTC	-0.2
GCTGCCAA	-0.145
ATATGGCA	0.0254
CACCCACG	0.178
ACCAGTTA	-0.0947
CGCTGTCA	-0.108
AATCCTCG	0.0686
AGTGTCTC	-0.159
CCGTTTAA	0.466
GTGTGTGA	0.0874
ATGGCAAC	-0.0456
GAATGGTA	-0.118
AAATCGTA	0.383
GTTCTTCA	0.132
CACACAGG	-0.0693
ATGGTAAA	0.0691
CGGAATAA	-0.138

Sequence	PBM E-score
AAGATCGT	0.371
CTTTTTAC	0.194
CACTGCAC	-0.228
AGTTCTTG	-0.0476
TGCACAAA	-0.0779
AGCCATAC	0.279
CCCGGATC	-0.0679
CAGGGTCG	-0.0697
CTCTTTTA	0.241
AAAGATCC	-0.0446
AGGTTCCG	-0.0581
CCAAAGCA	-0.168
AATTACCC	-0.0615
CCAGAACC	-0.129
CAGAATGA	-0.0659
GAAATGAA	0.125
ATCCTTGC	-0.189
AACCATTG	0.0108
ACTACCTA	0.0177
CCCTAGCA	-0.26
GCTCTGCC	-0.233
CGACGAAG	0.201
GTGTAGAA	0.117
CTATAGAC	-0.218
AGCTTGGG	0.0178

Sequence	PBM E-score
GGTTTGCA	0.0633
GGGTTAAC	0.0324
AGCAAACA	0.0526
CAGCGTCA	-0.221
CCAGGTCA	-0.309
CATTGAGA	-0.112
GGATTCCC	-0.161
CGTTCAAA	0.369
CATTGCGA	-0.0248
AGTTCCTG	-0.211
TGGCTCAA	-0.0798
AATCTGAT	-0.248
CCTCTTAC	0.216
CTTTTGTA	0.129
AGCGAGAC	0.151
CTCATGCC	-0.0922
ACGACGGG	0.415
GTGGTGAA	-0.133
TGCAACCA	-0.0356
CCTGGACA	-0.232
CCTAGTAC	0.0299
CTGCACCA	-0.174
CCAGGCAA	-0.145
CACGGGCA	-0.176
CAGTAACC	-0.0715

Sequence	PBM E-score
GGTTATCA	-0.117
AACTTTGT	-0.172
CTTCTGGC	-0.215
ATTCCCCA	-0.185
CGTGGAAG	-0.00238
CGCCTTAA	0.128
GGGGGACA	0.0396
CATTCACG	-0.0631
GGTGTGGA	0.00988
GGACCTAA	0.118
ATCACTTC	-0.0496
CCCTTAAC	0.0417
AGACCCTC	-0.325
ATATAATA	-0.0226
GGGTAACA	0.00245
CACGCGTC	0.0558
CGCCATGC	-0.137
CGCCGTGA	-0.138
CACGGGGC	-0.174
AGAGGTCA	-0.0612
AGCTGACA	-0.132
AGCGGCCT	-0.254
CCGTATTC	0.304
GCTAAGTA	-0.0628
CCTTTGCA	-0.0476

Sequence	PBM E-score
ACAAGGGA	-0.205
ACGCTCGA	0.071
AGTTGTAG	-0.161
GCTGCGCA	-0.215
GCGTCACA	-0.0716
ACGTCGGC	0.0769
CCTCCAAA	0.0217
AGTAAGAG	-0.0488
CACACCGC	-0.0268
AACATAGG	-0.0922
TAAACTGA	0.0405
GATTCTAA	0.0686
AAATCGGA	-0.0167
GTCATTGA	-0.0998
AAGTCCGG	-0.167
ACCGCACA	-0.034
ACCTATTC	0.114
AAAGGCTA	-0.173
ACGGAGCT	0.0658
ATTTTCTG	0.0455
AAGCCCCA	-0.193
ATAACTGC	-0.188
AGCAAGTC	-0.148
ATCTATCG	0.0972
GGACTAAA	-0.0699

Sequence	PBM E-score
CGATCGGC	0.0356
AAAGTCGC	0.118
AATCAGAG	-0.017
CGGACTGA	-0.119
GTAACACA	0.0886
AACAGTAG	-0.00931
CGCCCCTA	-0.066
CAAGAGAA	0.0518
ACGACGTC	0.367
CGTACTGA	0.292
TACGGCCA	0.292
GCGAGAAC	0.159
GCATCCGA	-0.01
AGTCGACC	-0.0977
ATGGGCAG	-0.171
CCCGAAGA	-0.0235
CCAAACGA	0.476
GCCTAGGA	-0.336
CAATTGAG	-0.0204
CTGCTTGC	-0.0297
ACACCCCG	-0.0396
ACAGCACA	0.0988
